Measured values as given in PubChem BioAssay (NCATS).
The shares of active, inactive and inconclusive entries below differ from those in the screen. Potencies of inconclusive entries are doubtful fits and often do not repeat. Activity calls are given as the source filed them. The call rests on the fitted dose curve; in most records, active means well fitted curve in the direction sought with a large enough effect; inconclusive means small, poorly fitted or top-dose-only effect, or another doubt; inactive means no such curve, though single readings can be large; an effect the other way counts as inactive or inconclusive.

What was measured:
[1] = qHTS of pediatric cancer cell lines to identify multiple opportunities for drug repurposing: Primary screen for DAOY cells (AID 1347090); settings: DAOY medulloblastoma viability, CellTiter-Glo luminescence, 48 h; activity change, negative = cytotoxic: at 46 µM (top of the series); further: nearly all actives have a fitted effect of over 55% in size
In short: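 Cell viability, CellTiter-Glo luminescence; 500-1,000 cells/well, 8- or 11-point titration, 48 h compound exposure at 37 degrees C, 5% CO2. Controls: DMSO neutral, bortezomib 2.3 µM final as positive.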

[2] = qHTS of pediatric cancer cell lines to identify multiple opportunities for drug repurposing: Primary screen for SK-N-MC cells (AID 1347093); settings: SK-N-MC viability, CellTiter-Glo luminescence, 48 h; activity change, negative = cytotoxic: at 46 µM (top of the series)
In short: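 Metabolically active cells were quantified by ATP-dependent luminescence (CellTiter-Glo, 15 min at room temperature) following 48 h treatment. Cells had been plated at 500-1,000 per well and settled for 5 h beforehand.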

[3] = qHTS of pediatric cancer cell lines to identify multiple opportunities for drug repurposing: Primary screen for SK-N-SH cells (AID 1347098); further: nearly all actives have a fitted effect of over 65% in size
In short: (§1)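 Cells (500-1,000/well) rested 5 h, then received compounds for 48 h; metabolically active cells were measured by CellTiter-Glo luminescence. Final concentrations spanned up to 46 µM (MIPE, 11-point) or 0.59 nM-46 µM (NPC, 8-point) in primary screens, 11-point in follow-ups.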

[4] = qHTS of pediatric cancer cell lines to identify multiple opportunities for drug repurposing: Primary screen for LAN-5 cells (AID 1347100); settings: LAN-5 neuroblastoma viability, CellTiter-Glo luminescence, 48 h; activity change, negative = cytotoxic: at 46 µM (top of the series)
In short: as §1

[5] = qHTS of pediatric cancer cell lines to identify multiple opportunities for drug repurposing: Primary screen for BT-12 cells (AID 1347101); further: nearly all actives have a fitted effect of over 25% in size
In short: as §1

[6] = qHTS of pediatric cancer cell lines to identify multiple opportunities for drug repurposing: Primary screen for RD cells (AID 1347104); further: nearly all actives have a fitted effect of over 55% in size
In short: (§2)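 Readout: CellTiter-Glo luminescence, 48 h treatment. Controls DMSO (neutral) and bortezomib 2.3 µM final (positive). Potency and efficacy taken from primary-screen concentration-response curves.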

[7] = qHTS of pediatric cancer cell lines to identify multiple opportunities for drug repurposing: Primary screen for BT-37 cells (AID 1347094)
In short: as §2

[8] = qHTS of pediatric cancer cell lines to identify multiple opportunities for drug repurposing: Primary screen for NB-EBc1 cells (AID 1347095)
In short: as §2

[9] = qHTS of pediatric cancer cell lines to identify multiple opportunities for drug repurposing: Primary screen for U-2 OS cells (AID 1347096); further: nearly all actives have a fitted effect of over 50% in size
In short: as §1

[10] = qHTS of pediatric cancer cell lines to identify multiple opportunities for drug repurposing: Primary screen for NB1643 cells (AID 1347099); further: nearly all actives have a fitted effect of over 50% in size
In short: as §2

[11] = qHTS of pediatric cancer cell lines to identify multiple opportunities for drug repurposing: Primary screen for Rh18 cells (AID 1347102); further: nearly all actives have a fitted effect of over 65% in size
In short: as §1

[12] = qHTS of pediatric cancer cell lines to identify multiple opportunities for drug repurposing: Primary screen for OHS-50 cells (AID 1347103); further: nearly all actives have a fitted effect of over 40% in size
In short: as §1

[13] = qHTS of pediatric cancer cell lines to identify multiple opportunities for drug repurposing: Primary screen for Rh41 cells (AID 1347108); further: nearly all actives have a fitted effect of over 70% in size
In short: as §2

[14] = qHTS of pediatric cancer cell lines to identify multiple opportunities for drug repurposing: Primary screen for Saos-2 cells (AID 1347097); further: nearly all actives have a fitted effect of over 40% in size
In short: as §2

[15] = qHTS of pediatric cancer cell lines to identify multiple opportunities for drug repurposing: Primary screen for MG 63 (6-TG R) cells (AID 1347105); settings: MG 63 (6-TG R) viability, CellTiter-Glo, 48 h; activity change, negative = cytotoxic: at 46 µM (top of the series); further: nearly all actives have a fitted effect of over 50% in size
In short: as §2

[16] = qHTS of pediatric cancer cell lines to identify multiple opportunities for drug repurposing: Primary screen for Rh30 cells (AID 1347107); further: nearly all actives have a fitted effect of over 75% in size
In short: as §1

[17] = qHTS of pediatric cancer cell lines to identify multiple opportunities for drug repurposing: Confirmatory screen for NB1643 cells (AID 1347109); settings: NB1643 neuroblastoma cell viability; activity change, negative = cytotoxic: at 45.9 µM (top of the series); further: nearly all actives have a fitted effect of over 45% in size
In short: as §1

[18] = qHTS of pediatric cancer cell lines to identify multiple opportunities for drug repurposing: Primary screen for control Hh wild type fibroblast cells (AID 1347106); further: nearly all actives have a fitted effect of over 55% in size;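 on activity change, negative = cytotoxic: a drop in luminescence marks cytotoxicity and a rise apparent proliferation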
In short: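 Viability after 48 h compound treatment at 37C, 500-1,000 cells/well, read as ATP luminescence with CellTiter-Glo. Primary screens used 11-point (MIPE, 0.78 nM-46 µM) or 8-point (NPC, 0.59 nM-46 µM) final concentrations; follow-up screens used 11-point dilutions.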
Potency means the concentration at half of the fitted maximal effect; tags describe the fitted curve by direction and shape.

O=C1c2cccc(O)c2C(=O)c2c(O)cc(CO)cc21
Potency [1]: inconclusive: 18.7 µM [cytotoxic, partial curve, poor fit]
Potency [2]: inconclusive: 52.6 µM [cytotoxic, single point]
Potency [3]: inactive
Potency [4]: inactive
Potency [5]: inactive
Potency [6]: inconclusive: 18.7 µM [cytotoxic, partial curve, poor fit]

C[C@@H](N)c1ccc(C(=O)Nc2ccnc3[nH]ccc23)cc1
Potency [1]: inconclusive: 18.7 µM [cytotoxic, partial curve]
Potency [2]: active: 26.4 µM
Potency [7]: inconclusive: 34.3 µM [cytotoxic, single point]
Potency [8]: inconclusive: 29.6 µM [cytotoxic, single point]
Potency [9]: inconclusive: 29.6 µM [cytotoxic, single point]
Potency [10]: inconclusive: 29.6 µM [cytotoxic, single point]
Potency [4]: active: 16.6 µM
Potency [5]: inconclusive: 30.6 µM [cytotoxic, single point]
Potency [11]: inconclusive: 23.5 µM [cytotoxic, single point]
Potency [12]: inconclusive: 43.2 µM [cytotoxic, single point]
Potency [6]: inconclusive: 37.2 µM [cytotoxic, single point]
Potency [13]: inconclusive: 18.7 µM [cytotoxic, partial curve]

Cc1ccc(S(=O)(=O)N[C@@H](Cc2ccccc2)C(=O)CCl)cc1
Potency [1]: inconclusive: 29.6 µM [cytotoxic, single point]
Potency [9]: inconclusive: 18.7 µM [cytotoxic, partial curve, poor fit]
Potency [14]: active: 9.35 µM
Potency [10]: active: 20.9 µM
Potency [11]: inconclusive: 18.7 µM [cytotoxic, partial curve]
Potency [13]: active: 18.7 µM

C=CCn1c(=O)c2cnc(Nc3ccc(N4CCN(C)CC4)cc3)nc2n1-c1cccc(C(C)(C)O)n1
Potency [1]: active: 0.372 µM
Potency [8]: active: 0.209 µM
Potency [14]: active: 1.05 µM
Potency [10]: active: 0.187 µM
Potency [6]: active: 0.418 µM
Potency [15]: inconclusive: 0.296 µM [cytotoxic, full curve, poor fit]
Potency [16]: inconclusive: 0.59 µM [cytotoxic, full curve]
Potency [13]: active: 0.469 µM
Potency [17]: inconclusive: 0.928 µM [cytotoxic, full curve, poor fit]

NC(N)=Nc1nc(CSCCC(N)=NS(N)(=O)=O)cs1
Potency [1]: inconclusive: 18.7 µM [cytotoxic, partial curve]
Potency [8]: inconclusive: 16.6 µM [cytotoxic, partial curve]
Potency [3]: active: 19.2 µM
Potency [4]: inconclusive: 33.2 µM [cytotoxic, single point]
Potency [12]: inconclusive: 21.7 µM [cytotoxic, partial curve]
Potency [6]: inconclusive: 18.7 µM [cytotoxic, partial curve, poor fit]
Potency [18]: inactive
Potency [16]: inconclusive: 18.7 µM [cytotoxic, partial curve]
Potency [13]: inconclusive: 14.8 µM [cytotoxic, partial curve]

Nc1nc2c(ncn2COC(CO)CO)c(=O)[nH]1
Potency [1]: inconclusive: 37.2 µM [cytotoxic, single point]
Potency [8]: inconclusive: 33.2 µM [cytotoxic, single point]
Potency [9]: inconclusive: 29.6 µM [cytotoxic, single point]
Potency [3]: inconclusive: 34.1 µM [cytotoxic, single point]
Potency [4]: inconclusive: 26.4 µM [cytotoxic, single point]
Potency [11]: inconclusive: 37.2 µM [cytotoxic, single point]
Potency [6]: inconclusive: 37.2 µM [cytotoxic, single point]
Potency [18]: inconclusive: 37.2 µM [cytotoxic, single point]
Potency [16]: inactive

Fc1ccc(Cl)cc1-c1nc(Nc2ccncc2)c2nccnc2n1
Potency [1]: inactive
Potency [9]: inactive
Potency [14]: inconclusive: 1.87 µM [cytotoxic, partial curve, poor fit]
Potency [11]: inactive

CN(C)C(=O)COC(=O)Cc1ccc(OC(=O)c2ccc(N=C(N)N)cc2)cc1
Potency [1]: inconclusive: 2.96 µM [cytotoxic, partial curve, poor fit]
Potency [7]: inconclusive: 21.7 µM [cytotoxic, partial curve]
Potency [10]: inconclusive: 11.8 µM [cytotoxic, single point]
Potency [12]: inconclusive: 43.2 µM [cytotoxic, single point]

COc1ccc(-c2cc(=O)c3c(O)cc(O[C@@H]4O[C@H](CO[C@@H]5O[C@@H](C)[C@H](O)[C@@H](O)[C@@H]5O)[C@@H](O)[C@H](O)[C@@H]4O)cc3o2)cc1O
Potency [1]: inconclusive: 14.8 µM [cytotoxic, partial curve]
Potency [8]: inactive
Potency [14]: inactive
Potency [3]: active: 27.1 µM
Potency [6]: inconclusive: 16.6 µM [cytotoxic, partial curve]
Potency [16]: inconclusive: 13.2 µM [cytotoxic, partial curve]
Potency [13]: inconclusive: 11.8 µM [cytotoxic, partial curve]

c1ccc(CNc2nc(N3CCOc4ccccc43)nc3c2CCCC3)cc1
Potency [1]: inactive
Potency [7]: inconclusive: 24.3 µM [cytotoxic, partial curve, poor fit]
Potency [8]: inconclusive: 26.4 µM [cytotoxic, single point]
Potency [14]: inconclusive: 18.7 µM [cytotoxic, partial curve]
Potency [3]: inconclusive: 42.9 µM [cytotoxic, single point]
Potency [5]: inconclusive: 43.2 µM [cytotoxic, single point]
Potency [12]: inconclusive: 27.3 µM [cytotoxic, partial curve]
Potency [13]: inconclusive: 20.9 µM [cytotoxic, partial curve]
